The text below walks through data of publication PMC4336329 (PLoS ONE, 2015).

In all, about 310,000 compounds went through this assay and about 14,000 (4.5%) showed an effect of 50% or more. Effects have a minus sign here. Some of the results follow.
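Further: peak tail current of the secondary pulse compared with the same well before compound.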

human ether-à-go-go-related gene (hERG) potassium channel, sequence (Q12809 whole entry, looked up): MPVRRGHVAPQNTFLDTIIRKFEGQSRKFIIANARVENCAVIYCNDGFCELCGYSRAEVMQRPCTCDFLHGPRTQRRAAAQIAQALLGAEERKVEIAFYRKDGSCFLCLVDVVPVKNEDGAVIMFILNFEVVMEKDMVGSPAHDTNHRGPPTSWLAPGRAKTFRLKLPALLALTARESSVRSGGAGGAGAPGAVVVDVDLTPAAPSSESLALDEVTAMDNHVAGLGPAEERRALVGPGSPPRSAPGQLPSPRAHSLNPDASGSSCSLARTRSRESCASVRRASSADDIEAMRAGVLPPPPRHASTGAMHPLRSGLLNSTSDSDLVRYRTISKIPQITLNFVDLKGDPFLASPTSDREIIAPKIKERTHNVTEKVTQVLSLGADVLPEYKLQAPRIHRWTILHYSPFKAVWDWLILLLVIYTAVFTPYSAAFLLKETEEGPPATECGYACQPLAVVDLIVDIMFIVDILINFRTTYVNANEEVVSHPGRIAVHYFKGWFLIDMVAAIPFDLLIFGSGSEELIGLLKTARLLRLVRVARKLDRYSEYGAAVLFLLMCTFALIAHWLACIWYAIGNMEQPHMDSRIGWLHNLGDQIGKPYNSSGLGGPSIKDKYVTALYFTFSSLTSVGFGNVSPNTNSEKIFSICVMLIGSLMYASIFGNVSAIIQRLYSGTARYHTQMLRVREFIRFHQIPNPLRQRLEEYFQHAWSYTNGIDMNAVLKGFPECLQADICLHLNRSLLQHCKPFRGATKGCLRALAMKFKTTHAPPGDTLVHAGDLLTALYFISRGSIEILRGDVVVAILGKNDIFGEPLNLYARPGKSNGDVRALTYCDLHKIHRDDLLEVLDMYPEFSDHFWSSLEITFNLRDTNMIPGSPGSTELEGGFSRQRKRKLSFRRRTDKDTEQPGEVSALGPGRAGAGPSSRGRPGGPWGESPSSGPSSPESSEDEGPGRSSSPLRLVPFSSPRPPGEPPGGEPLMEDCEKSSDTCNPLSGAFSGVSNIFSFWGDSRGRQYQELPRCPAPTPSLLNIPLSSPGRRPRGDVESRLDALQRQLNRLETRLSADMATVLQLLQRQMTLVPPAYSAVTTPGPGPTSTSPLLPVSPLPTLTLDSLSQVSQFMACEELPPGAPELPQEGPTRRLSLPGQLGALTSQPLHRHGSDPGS

This test has as its target human ether-à-go-go-related gene (hERG) potassium channel (human, UniProt Q12809). The test is described as follows: primary screen, population patch clamp on CHO cells stably expressing hERG.
As to `COc1ccccc1CN(C)C(=O)C1COc2ccccc2O1` (centres unmarked), the “hERG current change (%, negative = inhibition) at 10uM” value was found to be 5.93%.
On to `Cl.Clc1ccc(COc2cccc(CNCc3ccncc3)c2)cc1`, for which the “hERG current change (%, negative = inhibition) at 10uM” value is -59.8%.
As for `COc1nc(NCC(C)C)nc(Oc2ccc(=O)n(-c3ccccc3)n2)n1`, the “hERG current change (%, negative = inhibition) at 10uM” value is given as -7.3%.
Consider `CC1CC(C)CN(CCCNC(=O)c2ccc3c(c2)NC(=O)C(N2CCCCC2)S3)C1` (centres unmarked), for which the “hERG current change (%, negative = inhibition) at 10uM” value is on record as -19.1%.
The figure for `Cn1ccnc1C(=O)c1ccccc1Cl` is 33.7%; for `CN(C)c1nc(OCC(=O)NC(C)(C)C)nc(N(C)C)n1` it is 8.21%; for `CC1(C)C[C@H](O)[C@@]23C[C@@H](OC2=O)[C@]2(C)C(=CCC4[C@@]5(C)CC[C@H](O)C(C)(C)C5CC[C@]42C)[C@@H]3C1` (some centres unmarked) it is 17.7%.
`O=C(Nc1ccc(Cl)cc1)Nc1ccon1`: the “hERG current change (%, negative = inhibition) at 10uM” value is on record as 15%.
On to `CN(C(=O)c1ccccc1C(=O)OCC(=O)Nc1ccccc1)c1ccccc1`, for which the “hERG current change (%, negative = inhibition) at 10uM” value is reported as 0.655%.
The figure for `CSc1[nH]c(=O)c(C(=O)O)cc1C#N` is 8.03%; for `Nc1cccc([N+](=O)[O-])c1` it is 14.9%; for `CNC(=O)C12CC3CC(C1)CC(c1ccc(C)cc1)(C3)C2` it is -17%.
The same measure for `CCOC(=O)c1c(C)[nH]c(C(=O)COC(=O)CCC(=O)c2ccc3c(c2)OCCO3)c1C`: -2.15%.
The figure for `Cc1ccc(Cn2ncc3c(NCCN(C)C)ncnc32)cc1` is -0.559%.
`CC(=O)C1=C(O)C(=O)N(Cc2ccco2)C1c1ccccc1` (centres unmarked): the “hERG current change (%, negative = inhibition) at 10uM” value worked out at 10.3%.
The figure for `COCCNC(=O)C(c1ccc(F)cc1)N(C(=O)CCC(=O)Nc1ccccn1)c1cccc(C)c1` (centres unmarked) is 16.2%; for `CCOC(OCC)P(=O)(C(C)C)C(C)C` it is 6.64%.
The same measure for `Cc1nnc(SCC2=C(C(=O)O)N3C(=O)C(NC(=O)C(C)n4nc(C(F)(F)F)cc4C)C3SC2)s1` (centres unmarked): 17.3%; for `CCOC(=O)C1=C(C)N=c2s/c(=C\c3cccc(OCC(=O)O)c3)c(=O)n2C1c1ccccc1` (centres unmarked): -15.9%.
The same measure for `C/C(=N\NC(=O)CSc1nc(C)[nH]c1[N+](=O)[O-])c1ccc(F)cc1`: 11.4%; for `CCC(=O)c1ccc(/C=C/c2nc3ccccc3n2C)o1`: -27.7%; for `C=CCn1c(SCC(=O)NNC(=O)Nc2cccc(Cl)c2)nnc1-c1ccccc1`: -34.9%.
As to `c1ccc(-c2ccc(OCCOCCn3cncn3)cc2)cc1`, the “hERG current change (%, negative = inhibition) at 10uM” value is -10.7%.
The figure for `COc1ccc(S(=O)(=O)Nc2ccc(N3CCOCC3)cc2)cc1[N+](=O)[O-]` is 1.63%; for `COc1ccc(N2CC(C(=O)N[C@@H](CC(C)C)C(=O)NC3CCCCC3)CC2=O)cc1` (some centres unmarked) it is 13.7%.
The same measure for `FC(F)(F)c1cccc(CN2CCCCCC2)c1`: 2.33%.
The figure for `O=C(O)C(=O)O.O=C(c1cccc(F)c1)N1CCN(Cc2c[nH]c3ccccc23)CC1` is -9.05%.
With `Cc1ccc(S(=O)(=O)CCc2nc3ccccc3s2)cc1`, the “hERG current change (%, negative = inhibition) at 10uM” value is on record as -5.74%.
The figure for `O=C(CSc1ncn[nH]1)Nc1cc(S(=O)(=O)N2CCCC2)ccc1Cl` is 9.05%.
As to `O=C(c1ccc(COc2c(F)c(F)c(F)c(F)c2F)o1)N1CCOCC1`, the “hERG current change (%, negative = inhibition) at 10uM” value is -18%.
The figure for `CC1=C(C)C(=O)N(c2ccccn2)C1=O` is 10.2%; for `Cc1cc(C)c2nc(/N=C(\N)NC(=O)Nc3ccccc3)nc(C)c2c1` it is -1.13%.
The same measure for `CCn1c(CCc2nc3ccccc3[nH]2)n[nH]c1=S`: 46.9%.
Consider `O=C(COC(=O)CCc1nc2ccccc2s1)NC(=O)NCc1ccco1`, for which the “hERG current change (%, negative = inhibition) at 10uM” value is -11.4%.
The same measure for `Cc1nc2ccccc2c2c1C(=O)N(c1ccc(C(=O)O)cc1)C2=O`: -10.8%; for `Cc1c(C2Nc3ccccc3C(=O)N2O)cnn1C` (centres unmarked): -5.29%.
Take `COc1ccc(N(C(=O)C(C)C)S(=O)(=O)c2ccc3ccccc3c2)cc1`: the “hERG current change (%, negative = inhibition) at 10uM” value is reported as -13.7%.
The figure for `COc1ccc(C(c2nnnn2Cc2ccc(F)cc2)N2CCN(c3ccccc3)CC2)cc1` (centres unmarked) is -4.37%.
The figure for `COc1ccc2c(c1)C(c1cccs1)=NNC(c1ccncc1)=N2` is -10.3%; for `CCCCc1cc(=O)oc2cc(C)cc(OCC(=O)N3CCC(C(N)=O)CC3)c12` it is -13.6%.
The figure for `C=CCN1C2CCCC1CC(NC(=O)Nc1cccc(C(C)=O)c1)C2` (centres unmarked) is 5.52%; for `Cc1c(NC(=O)CN2C(=O)C3C4C=CC(C4)C3C2=O)c(=O)n(-c2ccccc2)n1C` (centres unmarked) it is 3.02%; for `O=C1OCC(c2ccc(Cl)s2)=C1c1ccccc1[N+](=O)[O-]` it is 4.99%.
Consider `COc1ccc(CN(C)Cc2cc(=O)n3ccsc3n2)c(OC)c1OC`, for which the “hERG current change (%, negative = inhibition) at 10uM” value was -9.79%.
